This note sets out measurements from paper PMC7819943, “Rice protein-binding microarrays: a tool to detect cis-acting elements near promoter regions in rice”.

The other results are listed elsewhere or left out.

This assay deals with T1, OsWOX13 (Oryza sativa, UniProt Q5QMM3 1-267).
T1 sequence: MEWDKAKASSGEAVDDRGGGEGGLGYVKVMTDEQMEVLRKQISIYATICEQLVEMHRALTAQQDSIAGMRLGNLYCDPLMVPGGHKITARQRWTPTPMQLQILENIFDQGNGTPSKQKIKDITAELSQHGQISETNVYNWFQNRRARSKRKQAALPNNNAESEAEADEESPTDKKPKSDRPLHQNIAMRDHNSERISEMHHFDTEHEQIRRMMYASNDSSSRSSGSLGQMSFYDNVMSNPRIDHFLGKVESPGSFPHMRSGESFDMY
The assay can be described thus: protein-binding microarray (RPBM); PBS, 2% BSA, 51.3 ng/ul salmon testes DNA, 50 uM zinc acetate, 200 nM TF, 25 C, 1 h; high values mean tight binding. The note with it: protein: recombinant; tags: N-terminal polyhistidine and DsRed monomer fusion (pET32a); label: CyDye5-dUTP incorporated in the synthesized complementary strand; 3' TTTTT single-stranded linker to array surface; dsDNA, one strand shown. In short, it runs like this:
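Transcription factors were made in E. coli BL21-CodonPlus as N-terminal fusions to a polyhistidine tag and DsRed, then purified on Ni–NTA. After primer extension with Cy5-dUTP and blocking with 2% BSA, a custom Agilent array was exposed for 1 h at 25 °C to 200 nM protein in PBS, 2% BSA, salmon testes DNA and 50 µM zinc acetate. Washed arrays were scanned on an Axon 4000B, and the binding signal is per-feature fluorescence intensity in arbitrary units.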
As to “AGGTGATTTGGTTTTGTAAATTCAGCAACCTGTTCTATCTCGGAGTCACCTAGTGCAG”, the binding signal was 27700 fluorescence intensity (a.u.). With “TACTAAATTAATAAACAAATTTATAGTGCCTTCTACACATCGGAGTCACCTAGTGCAG”, the binding signal is 27200 fluorescence intensity (a.u.).

Take “AAAAGGTTAATTACCCGACTATGCAAATGAACAAGTACCTCGGAGTCACCTAGTGCAG”: the binding signal was 4550 fluorescence intensity (a.u.). “TTTGCTAATGACAAATTAATTAGGCTTAATAAATTCGTCTCGGAGTCACCTAGTGCAG”: the binding signal is 41500 fluorescence intensity (a.u.). Turning to “CGTAGTAATATCACCTTGATATAATTGACCGAGTTCAATACGGAGTCACCTAGTGCAG”, the binding signal was 10900 fluorescence intensity (a.u.). Turning to “TAAACTTAATTATAAATGTGCTAATGAACTATCTAGTTTTCGGAGTCACCTAGTGCAG”, the binding signal is 13700 fluorescence intensity (a.u.).

Turning to “GCGCTGTGGATTGGTTGTGTCTTTTCTTGTATATAAACGCCGGAGTCACCTAGTGCAG”, the binding signal is 3960 fluorescence intensity (a.u.). For the sequence “TTTAAAATTTAAGGTGATTGAATTAAGAAAGTAGTGCTCCCGGAGTCACCTAGTGCAG”, the binding signal was 45000 fluorescence intensity (a.u.). With “TTCGGTGACTAGCTAATTAAGCTCGCCGCTAATCACTTGGCGGAGTCACCTAGTGCAG”, the binding signal was 19600 fluorescence intensity (a.u.). With “TCCGATTCCAATCCAATCCAATCCGATTCAGAAGTAGAGCCGGAGTCACCTAGTGCAG” the figure was 4080 fluorescence intensity (a.u.); with “TTGGAAGATTAATAGGCTATTGTTAATTCTTACTGCCGGCCGGAGTCACCTAGTGCAG”, 4940 fluorescence intensity (a.u.).

Consider “TGGTGGCCCGGCGGGCGGGCGGGGCGGGGCGGACGAACGGCGGAGTCACCTAGTGCAG”, for which the binding signal is 6740 fluorescence intensity (a.u.). On to “ATGCCAATCCGTGGGATAAATTGATTATGTGCTAATGAATCGGAGTCACCTAGTGCAG”, for which the binding signal was 33000 fluorescence intensity (a.u.).

In the case of “TATTCAATTATAGATTTAACGAAATTATACTGGTATTGTACGGAGTCACCTAGTGCAG”, the binding signal is 37400 fluorescence intensity (a.u.). With “AATTTTAACTGAATATTATCTAAACTTCAAATATGACTGGCGGAGTCACCTAGTGCAG”, the binding signal is 13100 fluorescence intensity (a.u.). The result for “GGCAACAGCAAATTAGTCACATTCTACCTTGAGGTAAGGTCGGAGTCACCTAGTGCAG” reads 3590 fluorescence intensity (a.u.); that for “TCTGATGTGAGGATAATCGGGGATGGCGTCTGTTTATCCTCGGAGTCACCTAGTGCAG”, 3280 fluorescence intensity (a.u.). “AATTCAAATTTAAATTTGAATCGGATATATAAACTTTGACCGGAGTCACCTAGTGCAG”: the binding signal is 12100 fluorescence intensity (a.u.).

Take “TTAATAATTATTATGATGTGACAAAGAACATCGGATGCATCGGAGTCACCTAGTGCAG”: the binding signal was 40000 fluorescence intensity (a.u.). Regarding “AATATAATTAAGTAATCAATACTATTATTATAAGTTGATACGGAGTCACCTAGTGCAG”, the binding signal is 17200 fluorescence intensity (a.u.). Turning to “GAATCAATGATTTTCACTTTACATGTCAGAGAATTCAATTCGGAGTCACCTAGTGCAG”, the binding signal is 9340 fluorescence intensity (a.u.).

In the case of “TTTTATTAATTTAAAATACAATTATAGACGTGGGCCACTTCGGAGTCACCTAGTGCAG”, the binding signal was 16200 fluorescence intensity (a.u.).

“ACTATCCGAAATTTCACTCTAATCTACTTTCGTCCCACATCGGAGTCACCTAGTGCAG”: the binding signal is 4140 fluorescence intensity (a.u.).

With “TCCTAATATAAAATTAATGGTTAAAGTTTGATAGAGGTACCGGAGTCACCTAGTGCAG”, the binding signal was 7460 fluorescence intensity (a.u.). In the case of “TTTAGATTGGATTTCGTTATGTGTTTTCCCATGTCATTTACGGAGTCACCTAGTGCAG”, the binding signal was 30300 fluorescence intensity (a.u.).

Turning to “GAAAATTTTCCTATTTGGCCCTTTGATACAAAGGATTGGACGGAGTCACCTAGTGCAG”, the binding signal is 3360 fluorescence intensity (a.u.).

For “TACAAATGAATCAATCAATGTGAATTGGCGAAATCTCCAACGGAGTCACCTAGTGCAG”, the binding signal is 16700 fluorescence intensity (a.u.). With “TTCCTGTTTCGCTTTAACTTGACTGCAATTCTGCAATCACCGGAGTCACCTAGTGCAG” the figure was 5770 fluorescence intensity (a.u.). With “ATATAATTTAGATACTTACAATGTAAATACATGCCGACTACGGAGTCACCTAGTGCAG”, the binding signal is 9240 fluorescence intensity (a.u.). As to “TTGACTTGATGTATAAATTTCTTTTCAATCTGTTACTTTACGGAGTCACCTAGTGCAG”, the binding signal is 12000 fluorescence intensity (a.u.). Take “TGACCAAACTGATTGGAAGTTGGGGAGAGGCTAGGTTGTTCGGAGTCACCTAGTGCAG”: the binding signal was 31600 fluorescence intensity (a.u.). On to “ATATAATAGATCTGGATAGATCTATTATAATCATTGGTTTCGGAGTCACCTAGTGCAG”, for which the binding signal was 8790 fluorescence intensity (a.u.). For “ATTAAATTTGAAAATTTATTAAATTGTGCTGATAAGTCAACGGAGTCACCTAGTGCAG”, the binding signal was 14500 fluorescence intensity (a.u.).

“TAGGAGATTATATTTAAATTAACTTTAAAGAGAAATCTTGCGGAGTCACCTAGTGCAG”: the binding signal was 11600 fluorescence intensity (a.u.). For the sequence “CCTAATTTCTAACATTATATTGTTGCTTAGTGTACTAACTCGGAGTCACCTAGTGCAG”, the binding signal is 18700 fluorescence intensity (a.u.). “CTAAATTATTTCCTACTAGTACCTTCTAGAGAAACCCCAGCGGAGTCACCTAGTGCAG”: the binding signal is 16900 fluorescence intensity (a.u.). As for “TGAAATAATTAATTAAATTATCATTAAGCCCCAAACCGAGCGGAGTCACCTAGTGCAG”, the binding signal is 57300 fluorescence intensity (a.u.). As to “AAACTCAGTGACTGATGATAATCTGTTTGCAATTGAGTTGCGGAGTCACCTAGTGCAG”, the binding signal was 6210 fluorescence intensity (a.u.).

As to “CAATAATTATGGTCCCCTCTCCTCGCCCAATCCCATCTCGCGGAGTCACCTAGTGCAG”, the binding signal is 33100 fluorescence intensity (a.u.). In the case of “AATAACACAATTGTTGATAATTGTTGGATTACTTTGTGAGCGGAGTCACCTAGTGCAG”, the binding signal is 16000 fluorescence intensity (a.u.). With “GCTAATACTTAATTAATCATGCGCTAATGGACTGCTCTAGCGGAGTCACCTAGTGCAG”, the binding signal was 38000 fluorescence intensity (a.u.).

As for “CTGATAGATATAGATGGGCATGATCCACTGTGCAATTGTGCGGAGTCACCTAGTGCAG”, the binding signal was 18100 fluorescence intensity (a.u.).
